Data taken from PubChem BioAssay AID1508624 (National Center for Advancing Translational Sciences (NCATS), 2021).
Out of some 48,000 compounds screened, about 120 (0.25%) were called active. Roughly 4% stayed inconclusive and do not appear here. Calls come from the whole dose curve; as a rule, active = well fitted activation curve with a large enough effect; inconclusive = small, poorly fitted or top-dose-only effect, or another doubt; inactive = no such curve, though single readings can be large or run the other way. The list shows a part of the results, in another mix than the full data. Entries without a call were filed so in the source.

Assay: Primary qHTS for Identification of Small Molecule Activators of Huntingtin-Antisense Promoter Activity; note: nearly all actives have a fitted effect of over 55% in size
Conditions: HEK293 HTT-AS promoter firefly luciferase reporter, 24 h; activity change, positive = activation: at 57.5 µM (top of the series), percent change from vehicle, -100% = no light
Source text: Assay Provider: Russell L. Margolis M.D.
Department Neurology, Johns Hopkins University School of Medicine, Baltimore, MD
Huntington's Disease (HD) is a neurodegenerative disorder caused by a CAG repeat expansion in exon 1 of huntingtin (HTT). While there are currently no disease-modifying treatments for HD, recent efforts have focused on development of nucleotide-based therapeutics to lower HTT expression. As an alternative to siRNA or oligonucleotide methods, we hypothesized that suppression of HTT expression might be accomplished by small molecules that either (1) directly decrease HTT expression by suppressing HTT promoter activity or (2) indirectly decrease HTT expression by increasing the promoter activity of HTT-AS, the gene antisense to HTT that appears to inhibit expression of HTT.
We developed and employed a high throughput screen for modifiers of HTT and HTT-AS promoter activity using luminescent reporter HEK293 cells; of the 52,041 compounds tested, we identified 898 replicable hits. We used a rigorous stepwise approach to assess compound toxicity and the capacity of the compounds to specifically lower huntingtin protein in 5 different cell lines, including HEK293 cells, HD lymphoblastoid cells, mouse primary neurons, HD iPSCs differentiated into cortical-like neurons, and HD hESCs. We found no compounds which were able to lower huntingtin without lowering cell viability in all assays, though the potential efficacy of a few compounds at non-toxic doses could not be excluded.
SEQUENCE No. (1, 2, 3, etc.); […] (e.g., Cells, Incubation, Reagent, etc.); VALUE and DESCRIPTION.
1; Reagent; 4 uL; 2,500 Hek293 luciferase reporter cells per wells
3; Compound; 23 nL; Control inhibitor / compound library
5; Reagent; 2.5 uL; Firefly Luc reagent; Dual-Glo Luciferase Reporter Assay System (Promega)
6; Time; 10 min; room temperature incubation
7; Detection; Luminescence; FLuc
NOTES (numbers refer to sequence above)
1; High-throughput screening, measuring luminescence from a Hek293 luciferase reporter, was performed in 1,536 well white-walled tissue-culture treated plates. 2,500 cells were plated in 4 µL of Opti-MEM per well using a Multidrop Combi Reagent Dispenser (ThermoFisher).
2; Assay plates were cultured for 24 hours.
3; Control inhibitor (PTC124; final concentration of 50 uM) and compound library (at final concentrations of 460 nM - 57.5 uM) were added to the assay plate using the Kalypsis Pintool Robotic System equipped with 1536 pinheads.
4; Cells were then incubated for 24 hours at 37 degrees C prior to luminescence measurements.
5; In all cases, luminescence was measured using the Dual-Glo Luciferase Reporter Assay System (Promega) following the manufacturer's instructions.
6; Room temperature incubation.
7; Luminescence signal was obtained using the PerkinElmer ViewLux plate reader. Results were normalized to vehicle control (0% activity) and zero RLU (-100% activity).

| Compound | activity change, positive = activation |
| --- | --- |
| COc1ccc(N2CCN(C(=O)c3cc(-c4ccc(C)c(F)c4)on3)CC2)cc1 | -12.8% |
| Cc1ccc(OCCCn2c(-c3ccc(Cl)cc3)nc3ccccc3c2=O)c(C)c1 | -1.5% |
| COc1ccc(S(=O)(=O)Nc2cccc(-c3ccc(N4CCC(C)CC4)nn3)c2)c(OC)c1 | 28.6% |
| COC(=O)c1cc2oc3ccccc3c2n1CC(=O)Nc1ccc(C)c(F)c1 | 5.93% |
| COc1ccc(-c2cc(C(=O)Nc3cccnc3)no2)cc1OC | 15.6% |
| Cc1ccc(Cl)cc1NC(=O)COC(=O)CC(C)(C)CC1=NS(=O)(=O)c2ccccc2N1 | inactive: -34.6% |
| CCCc1cc(C(=O)Nc2c(C)nn(Cc3c(Cl)cccc3Cl)c2C)no1 | -23.8% |
| Cc1cc(C)c(S(=O)(=O)Nc2ccc(-c3ccc(N4CCCCCC4)nn3)cc2)c(C)c1 | 22.1% |
| Cc1nn(-c2ccc(N3CCCC3)nn2)c(C)c1CCC(=O)Nc1ccc(F)c(Cl)c1 | 3.23% |
| Cn1c(=O)oc2cc(S(=O)(=O)N3CCC(C(=O)Nc4ccc(F)c(Cl)c4)CC3)ccc21 | inactive: -16.8% |
| O=C(Nc1cccnc1)c1cc(-c2cccc(Cl)c2)on1 | 4.87% |
| Cc1cc(O)c2c(C)c(CC(=O)NCc3ccccc3Cl)c(=O)oc2c1 | -10.5% |
| COc1ccc(C(=O)CC2(O)C(=O)N(Cc3ccccc3)c3ccc(Br)cc32)cc1 (stereo not drawn) | -6.18% |
| CCOC(=O)c1cc(C)n(CC2CCC(C(=O)Nc3ccc(OC)cc3)CC2)c1C (stereo not drawn) | -19.2% |
| COc1ccccc1NC(=O)c1cc2c(=O)n(Cc3cccs3)ccc2nc1C | -20.8% |
| COc1ccc(F)cc1S(=O)(=O)Nc1cccc(-c2ccc(N3CCCCCC3)nn2)c1 | 17.6% |
| Cc1cc(C(=O)N2CCN(c3cccc(Cl)c3)CC2)n(-c2ccccc2)n1 | inactive: -28.4% |
| Cc1ccc(NC(=O)CSc2nc(-c3ccco3)nc3cc(=O)[nH]n23)cc1C | -12.1% |
| CCOC(=O)c1cc(C)n(CC2CCC(C(=O)Nc3ccc(C)c(F)c3)CC2)c1C (stereo not drawn) | -32.1% |
| COc1cc2c(-c3ccccc3O)nc3c(c(C)nn3-c3ccccc3)c2cc1OC | -1.91% |
| O=S(=O)(Nc1cccc(-c2ccc(N3CCOCC3)nn2)c1)c1ccc(F)cc1F | 11.8% |
| CC(C)c1ccccc1NC(=O)CSc1nnc(COc2ccccc2Cl)o1 | inactive: -17.8% |
| O=C(/C=C/c1ccccc1)N1CCN(Cc2cc(=O)n3nc(-c4ccccc4)sc3n2)CC1 | 6.24% |
| CCCOc1ccc(C2C(=O)N(C3CCCCCC3)CC(=O)N2CCCOCC)cc1OC (stereo not drawn) | -9.98% |

| Compound | activity change, positive = activation |
| --- | --- |
| CCOc1ccccc1C(=O)Nc1cc2c(cc1N1CCCCC1)n(C)c(=O)n2C | -48.5% |
| COc1cc(-c2nnc(SCC(=O)Nc3cccc(C#N)c3)o2)cc(OC)c1OC | -0.132% |
| CS(=O)(=O)N1CCC(N2CCN(Cc3ccc(F)cc3)C(=O)C2=O)CC1 | 2.36% |
| Cc1cccc(N(C)c2nc3ccc(C)cc3n3nnnc23)c1 | -5.96% |
| O=C(O)CCc1ccc(-c2ccc(Cl)cc2)n1-c1cccc(C(F)(F)F)c1 | -21.8% |
| COC(=O)c1cc2oc3ccccc3c2n1CC(=O)Nc1cccc(SC)c1 | 7.22% |
| O=C(Nc1ccc2c(c1)OCO2)c1cc(-c2cccc(Cl)c2)on1 | 15.3% |
| COc1ccccc1-c1cc(C(=O)N2CCN(c3ccccc3)CC2)no1 | 1.53% |
| O=C(CSc1nc(-c2ccco2)nc2cc(=O)[nH]n12)Nc1ccc(F)cc1 | -6.94% |
| CCOc1ccc(CC(=O)NCCc2sc(-c3cccc(F)c3)nc2C)cc1 | inactive: -38.3% |
| COc1ccc(CNC(=O)Cc2c(C)c3c(O)cc(C)cc3oc2=O)cc1 | 12.6% |
| CCOc1ccc(NS(=O)(=O)c2ccc3[nH]cc(C(=O)NCc4ccco4)c(=O)c3c2)cc1 | inactive: -29.7% |
| CCCOc1ccc(C(=O)Nc2cccc(-c3nc4ccccc4[nH]3)c2)cc1 | inactive: -9.78% |
| CCc1nn(CC(=O)NC(C)C)c(=O)c2cc3cc(F)ccc3n12 | -1.91% |
| Cc1cccc(C)c1Nc1c(-c2ccsc2)nc2ccccn12 | inactive: -33.7% |
| Cc1cccc(Nc2nnc(-n3nc(C)cc3C)c3ccccc23)c1 | 51% |
| COc1cc(NC(=O)c2cc(-c3ccc4c(c3)OCO4)on2)cc(OC)c1OC | 4.69% |
| COc1ccc(NC(=O)c2cnn(-c3ccc(C)cc3)c2-n2cccc2)cc1Cl | -24.6% |
| O=C(Cn1c(=O)oc2ccccc21)NCc1cccc(Cl)c1 | 10.7% |
| Cc1cccc(CCNC(=O)c2cc3ccccn3n2)c1 | 54.6% |
| O=c1ccn([C@@H]2O[C@H](CO)[C@H](O)[C@@H]2F)c(=O)[nH]1 | inactive: -32.1% |
| O=C(Nc1ccc(C(=O)OCc2cc(=O)n3nc(C4CC4)sc3n2)cc1)c1ccc(F)cc1 | inactive: 10.7% |
| COc1ccccc1C(=O)Nc1cc2c(cc1N1CCCCC1)n(C)c(=O)n2C | -8.01% |
| COC(=O)c1cc2oc3ccccc3c2n1CC(=O)Nc1ccc(OC)c(OC)c1OC | -18.8% |
